# Assay results: the supplement of paper PMC8728848
# The other results are listed elsewhere or left out.
# B1: Tectonin 2 (Laccaria bicolor) (protein)
# chain: MPWKGISGSLSRISAGSVTNVWGVNAANNIYRYTGDDAKPWVQIPGALTDIGAAADGTVWGVNAAGNIYRYVWDSNHWTQIKGALKRISAGSRTNVWGVNAGGAIYRYTGDDANPWVQIPGVLSDIGAGADGTVWGVNAAGEIYRYTGDQGDPNHWVKIPGALSAISAGIKTNVWGVNSANNIYTSTGDDKNPWLGIGGSLVDIGAGTDGVVWGVNAGGGIYRWIRD
# Key:
# Test in all cases: glycan array binding signal (z-score within array); higher = stronger binding
# Details in all cases: glycan notation: IUPAC condensed, linker removed
# [1] = target: Fuc(a1-2)Gal(b1-4)[Fuc(a1-3)]GlcNAc(b1-2)[Fuc(a1-2)Gal(b1-4)[Fuc(a1-3)]GlcNAc(b1-4)]Man(a1-3)[Fuc(a1-2)Gal(b1-4)[Fuc(a1-3)]GlcNAc(b1-2)Man(a1-6)]Man(b1-4)GlcNAc(b1-4)GlcNAc
# Procedure, shortened: (§1)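 Glycan array data were curated from 3228 arrays in the Consortium for Functional Glycomics database and kept only where the protein sequence was available. Glycan names were converted to IUPAC-condensed notation, and columns mapping to the same glycan were averaged. The binding signal is a within-array Z-score, averaged across arrays of the same protein sequence at different concentrations or buffers and across linkers. Negative Z-scores can be read as non-binding.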
# [2] = target: Fuc(a1-2)Gal(b1-4)[Fuc(a1-3)]GlcNAc(b1-3)Gal(b1-4)[Fuc(a1-3)]GlcNAc
# Procedure, shortened: as §1
# [3] = target: Fuc(a1-2)Gal(b1-4)[Fuc(a1-3)]GlcNAc(b1-3)Gal(b1-4)[Fuc(a1-3)]GlcNAc(b1-3)Gal(b1-4)[Fuc(a1-3)]GlcNAc
# Procedure, shortened: as §1
# [4] = target: Fuc(a1-2)Gal(b1-4)[Fuc(a1-3)]GlcNAc(b1-3)GalNAc
# Procedure, shortened: as §1
# Fuc(a1-2)Gal6S(b1-4)Glc = target: Fuc(a1-2)Gal6S(b1-4)Glc
# Procedure, shortened: as §1
# [5] = target: Fuc(a1-2)Gal6S(b1-4)Glc6S
# Procedure, shortened: as §1
# [6] = target: Fuc(a1-2)Gal6S(b1-4)GlcNAc
# Procedure, shortened: as §1
# Fuc(a1-2)[Gal(a1-3)]Gal = target: Fuc(a1-2)[Gal(a1-3)]Gal
# Procedure, shortened: as §1
# [7] = target: Fuc(a1-2)[Gal(a1-3)]Gal(b1-3)GlcNAc
# Procedure, shortened: as §1
# [8] = target: Fuc(a1-2)[Gal(a1-3)]Gal(b1-3)GlcNAc(b1-2)Man(a1-3)[Fuc(a1-2)[Gal(a1-3)]Gal(b1-3)GlcNAc(b1-2)Man(a1-6)]Man(b1-4)GlcNAc(b1-4)GlcNAc
# Procedure, shortened: as §1
# [9] = target: Fuc(a1-2)[Gal(a1-3)]Gal(b1-3)GlcNAc(b1-3)GalNAc
# Procedure, shortened: as §1
# [10] = target: Fuc(a1-2)[Gal(a1-3)]Gal(b1-4)Glc
# Procedure, shortened: as §1
# [11] = target: Fuc(a1-2)[Gal(a1-3)]Gal(b1-4)GlcNAc
# Procedure, shortened: as §1
# [12] = target: Fuc(a1-2)[Gal(a1-3)]Gal(b1-4)GlcNAc(b1-2)Man(a1-3)[Fuc(a1-2)[Gal(a1-3)]Gal(b1-4)GlcNAc(b1-2)Man(a1-6)]Man(b1-4)GlcNAc(b1-4)GlcNAc
# Procedure, shortened: as §1
# [13] = target: Fuc(a1-2)[Gal(a1-3)]Gal(b1-4)GlcNAc(b1-2)Man(a1-3)[Fuc(a1-2)[Gal(a1-3)]Gal(b1-4)GlcNAc(b1-2)Man(a1-6)]Man(b1-4)GlcNAc(b1-4)[Fuc(a1-6)]GlcNAc
# Procedure, shortened: as §1
# [14] = target: Fuc(a1-2)[Gal(a1-3)]Gal(b1-4)GlcNAc(b1-3)GalNAc
# Procedure, shortened: as §1
# [15] = target: Fuc(a1-2)[Gal(a1-3)]Gal(b1-4)[Fuc(a1-3)]Glc
# Procedure, shortened: as §1
# [16] = target: Fuc(a1-2)[Gal(a1-3)]Gal(b1-4)[Fuc(a1-3)]GlcNAc
# Procedure, shortened: as §1
# [17] = target: Fuc(a1-2)[Gal(a1-3)]Gal(b1-4)[Fuc(a1-3)]GlcNAc(b1-3)GalNAc
# Procedure, shortened: as §1
# [18] = target: Fuc(a1-2)[Gal(a1-4)]Gal(b1-4)GlcNAc
# Procedure, shortened: as §1
# [19] = target: Fuc(a1-2)[GalNAc(a1-3)]Gal
# Procedure, shortened: as §1
# [20] = target: Fuc(a1-2)[GalNAc(a1-3)]Gal(b1-3)GalNAc(a1-3)[Fuc(a1-2)]Gal(b1-4)GlcNAc
# Procedure, shortened: as §1
# [21] = target: Fuc(a1-2)[GalNAc(a1-3)]Gal(b1-3)GlcNAc
# Procedure, shortened: as §1
# [22] = target: Fuc(a1-2)[GalNAc(a1-3)]Gal(b1-3)GlcNAc(b1-2)Man(a1-3)[Fuc(a1-2)[GalNAc(a1-3)]Gal(b1-3)GlcNAc(b1-2)Man(a1-6)]Man(b1-4)GlcNAc(b1-4)GlcNAc
# Procedure, shortened: as §1
# [23] = target: Fuc(a1-2)[GalNAc(a1-3)]Gal(b1-3)GlcNAc(b1-3)GalNAc
# Procedure, shortened: as §1
# [24] = target: Fuc(a1-2)[GalNAc(a1-3)]Gal(b1-4)Glc
# Procedure, shortened: as §1
# [25] = target: Fuc(a1-2)[GalNAc(a1-3)]Gal(b1-4)GlcNAc
# Procedure, shortened: as §1
# [26] = target: Fuc(a1-2)[GalNAc(a1-3)]Gal(b1-4)GlcNAc(b1-2)Man(a1-3)[Fuc(a1-2)[GalNAc(a1-3)]Gal(b1-4)GlcNAc(b1-2)Man(a1-6)]Man(b1-4)GlcNAc(b1-4)GlcNAc
# Procedure, shortened: as §1
# [27] = target: Fuc(a1-2)[GalNAc(a1-3)]Gal(b1-4)GlcNAc(b1-3)Gal(b1-4)GlcNAc
# Procedure, shortened: as §1
# [28] = target: Fuc(a1-2)[GalNAc(a1-3)]Gal(b1-4)GlcNAc(b1-3)Gal(b1-4)GlcNAc(b1-3)Gal(b1-4)GlcNAc
# Procedure, shortened: as §1
# [29] = target: Fuc(a1-2)[GalNAc(a1-3)]Gal(b1-4)GlcNAc(b1-3)GalNAc
# Procedure, shortened: as §1
# [30] = target: Fuc(a1-2)[GalNAc(a1-3)]Gal(b1-4)[Fuc(a1-3)]GlcNAc
# Procedure, shortened: as §1
# [31] = target: Fuc(a1-2)[GalNAc(a1-3)]Gal(b1-4)[Fuc(a1-3)]GlcNAc(b1-3)GalNAc
# Procedure, shortened: as §1
# [32] = target: Fuc(a1-2)[GalNAc(a1-4)]Gal(b1-4)GlcNAc
# Procedure, shortened: as §1
# [33] = target: Fuc(a1-2)[GalNAc(b1-3)]Gal
# Procedure, shortened: as §1
# Fuc(a1-3)GlcNAc = target: Fuc(a1-3)GlcNAc
# Procedure, shortened: as §1
# [34] = target: Fuc(a1-3)[Gal(b1-4)]Glc6S
# Procedure, shortened: as §1
# [35] = target: Fuc(a1-3)[Gal(b1-4)]GlcNAc
# Procedure, shortened: as §1
# [36] = target: Fuc(a1-3)[Gal(b1-4)]GlcNAc(b1-2)Man(a1-3)[Fuc(a1-3)[Gal(b1-4)]GlcNAc(b1-2)Man(a1-6)]Man(b1-4)GlcNAc(b1-4)GlcNAc
# Procedure, shortened: as §1
# [37] = target: Fuc(a1-3)[Gal(b1-4)]GlcNAc(b1-2)Man(a1-3)[Fuc(a1-3)[Gal(b1-4)]GlcNAc(b1-2)Man(a1-6)]Man(b1-4)GlcNAc(b1-4)[Fuc(a1-6)]GlcNAc
# Procedure, shortened: as §1
# [38] = target: Fuc(a1-3)[Gal(b1-4)]GlcNAc(b1-3)Gal(b1-3)[Fuc(a1-4)]GlcNAc
# Procedure, shortened: as §1
# [39] = target: Fuc(a1-3)[Gal(b1-4)]GlcNAc(b1-3)GalNAc
# Procedure, shortened: as §1
# [40] = target: Fuc(a1-3)[Gal(b1-4)]GlcNAc(b1-4)Gal(b1-4)[Fuc(a1-3)]GlcNAc
# Procedure, shortened: as §1
# [41] = target: Fuc(a1-3)[Gal(b1-4)]GlcNAc(b1-4)Gal(b1-4)[Fuc(a1-3)]GlcNAc(b1-4)Gal(b1-4)[Fuc(a1-3)]GlcNAc
# Procedure, shortened: as §1
# [42] = target: Fuc(a1-3)[Gal(b1-4)]GlcNAc(b1-6)[Gal(b1-3)GlcNAc(b1-3)]Gal(b1-4)Glc
# Procedure, shortened: as §1
binder,measurement,setting,value
B1,glycan array binding signal (z-score),[1],0.014
same,glycan array binding signal (z-score),[2],-0.116
same,glycan array binding signal (z-score),[3],0.134
same,glycan array binding signal (z-score),[4],0.847
same,glycan array binding signal (z-score),Fuc(a1-2)Gal6S(b1-4)Glc,0.025
same,glycan array binding signal (z-score),[5],1.47
same,glycan array binding signal (z-score),[6],0.279
same,glycan array binding signal (z-score),Fuc(a1-2)[Gal(a1-3)]Gal,0.54
same,glycan array binding signal (z-score),[7],-0.07
same,glycan array binding signal (z-score),[8],0.495
same,glycan array binding signal (z-score),[9],-0.223
same,glycan array binding signal (z-score),[10],-0.179
same,glycan array binding signal (z-score),[11],0.816
same,glycan array binding signal (z-score),[12],9.62
same,glycan array binding signal (z-score),[13],0.092
same,glycan array binding signal (z-score),[14],0.145
same,glycan array binding signal (z-score),[15],-0.505
same,glycan array binding signal (z-score),[16],0.187
same,glycan array binding signal (z-score),[17],-0.298
same,glycan array binding signal (z-score),[18],0.061
same,glycan array binding signal (z-score),[19],-0.295
same,glycan array binding signal (z-score),[20],-0.454
same,glycan array binding signal (z-score),[21],-0.14
same,glycan array binding signal (z-score),[22],-0.226
same,glycan array binding signal (z-score),[23],0.162
same,glycan array binding signal (z-score),[24],-0.525
same,glycan array binding signal (z-score),[25],-0.227
same,glycan array binding signal (z-score),[26],-0.16
same,glycan array binding signal (z-score),[27],-0.507
same,glycan array binding signal (z-score),[28],-0.055
same,glycan array binding signal (z-score),[29],-0.357
same,glycan array binding signal (z-score),[30],-0.145
same,glycan array binding signal (z-score),[31],0.192
same,glycan array binding signal (z-score),[32],0.114
same,glycan array binding signal (z-score),[33],-0.321
same,glycan array binding signal (z-score),Fuc(a1-3)GlcNAc,-0.411
same,glycan array binding signal (z-score),[34],0.06
same,glycan array binding signal (z-score),[35],-0.401
same,glycan array binding signal (z-score),[36],-0.23
same,glycan array binding signal (z-score),[37],-0.086
same,glycan array binding signal (z-score),[38],-0.402
same,glycan array binding signal (z-score),[39],-0.138
same,glycan array binding signal (z-score),[40],-0.172
same,glycan array binding signal (z-score),[41],-0.16
same,glycan array binding signal (z-score),[42],-0.431
